Some of the results follow.
T1: UNK ZnF1-6 (called full-length) (human, UniProt Q9C0B0 30-357)
T1 sequence: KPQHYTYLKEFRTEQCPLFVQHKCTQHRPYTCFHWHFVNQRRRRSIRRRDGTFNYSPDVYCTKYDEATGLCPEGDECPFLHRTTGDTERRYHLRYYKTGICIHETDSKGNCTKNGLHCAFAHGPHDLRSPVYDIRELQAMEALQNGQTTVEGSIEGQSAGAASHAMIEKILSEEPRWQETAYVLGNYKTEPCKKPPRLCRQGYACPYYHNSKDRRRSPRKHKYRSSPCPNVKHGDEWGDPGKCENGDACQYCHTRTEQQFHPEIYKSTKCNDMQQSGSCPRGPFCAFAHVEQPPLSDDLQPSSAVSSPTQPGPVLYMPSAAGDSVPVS

B1: chr19:53069209:53069329:-|CDS|ENSG00000170949|unk|FALSE|unique (ssRNA)
RNA: GGGAGUUCUACAGUCCGACGAUCUGGAGAGAAACCUUACAAGUGCAAUGAGUGCGGCAAAGCCUUUAGUGUUCGUUCAAGCCUAGCAAUCCAUCAGACAAUCCACACUGGAGAAAAACCUUACAAAUGUAAUGAAUGUGGCAACAACAGAGGAUUGAGCAUCA
B2: ENSG00000107863:be:win_3501|CDS|ENSG00000107863|bound_else_gene|NA|bound_elsewhere_windowed (ssRNA)
RNA: GGGAGUUCUACAGUCCGACGAUCAUGUUGCAAAUUAGUUGAAGAAAGAGGUCUUGAAUAUACAGGUAUUUAUAGAGUUCCUGGAAAUAAUGCAGCCAUCUCAAGUAUGCAAGAAGAACUCAACAAGGGAAUGGCUGAUAUUGACAACAGAGGAUUGAGCAUCA
B3: chr7:92618090:92618217:-|CDS|ENSG00000105810|unk|total|mutant (ssRNA)
RNA: GGGAGUUCUACAGUCCGACGAUCUAUGUCCAUGUGUGGUUCUUUUGCCGCGUGAUUGGACUCCCAGGAGAAGAAGACUGGCCCCGAGAUGUUGCCCUUCCCAGGCAGGCUUUUCAUUCAAAAUCUGCCCAACCAAUUGAGAAGCAACAGAGGAUUGAGCAUCA
B4: chr1:235182574:235182675:-|CDS|ENSG00000054267|unk|FALSE|unique (ssRNA)
RNA: GGGAGUUCUACAGUCCGACGAUCUUUGACCAACAACAGAAAUGAUCUUAUUUCAAAGGAGGAACAGAACAGUUCAUCUUUGCUAGAAGAAAACAAAGUUCAUGCAGAUUUGGUAAUAUCCAAACCAGUGUCAAAAUCUCCAGACAACAGAGGAUUGAGCAUCA
B5: chr7:158734047:158734148:-|3pUTR|ENSG00000117868|msi1_unk|total|mutant (ssRNA)
RNA: GGGAGUUCUACAGUCCGACGAUCCUACCCGGAACACACCCUCUCACAGACGUACCAAUGUUAUUUUUAUAAUUUCAUGGAUUCCGUUAUACAUACCUUAACCGUUUUAUAAAAUUGUUGACAUUUCAGGCAAAUUUGGCCAAUCAACAGAGGAUUGAGCAUCA
B6: chr6:136999970:137001557:-|three_prime_utr|ENSG00000016402|control|control|control (ssRNA)
RNA: GGGAGUUCUACAGUCCGACGAUCAAGUUUUUUCCAGUUUGUCAGUGUCUGUGAGAAUUACUUAUUUCUUUUCUCUAUUCUCAUAGCACGUGUGUGAUUGGUUCAUGCAUGUAGGUCUCUUAACAAUGAUGGUGGGCCUCUGGACAACAGAGGAUUGAGCAUCA
B7: chr1:17067826:17067927:-|3pUTR|ENSG00000117115|msi1|total|mutant (ssRNA)
RNA: GGGAGUUCUACAGUCCGACGAUCCCAGAUUCAUUCCCUGGCUCCAACUGAAAAGACUCAGUUUCAAUCGUUAAAAGUUCCUUCCGGGCCAGAAGAAUAAAUGAAUUAUAAUCCCAUUUUGAAGAACCGAUUUAUAACCAAUGACAACAGAGGAUUGAGCAUCA
B8: chr3:50299934:50300035:-|3pUTR|ENSG00000114378|unk|FALSE|unique (ssRNA)
RNA: GGGAGUUCUACAGUCCGACGAUCCGUUGCCCAAGGUUGCACAGCAAGAAAAGGGAGAAGUUGAGAUUCAAACCCAGGCUGUCUAGCUCCGGGGGUACAGCCCUUGCACUCCUACUGAGUUUGUGGUAACCAGCCCUGCACGACCAACAGAGGAUUGAGCAUCA
B9: ENSG00000107863:be:win_3301|CDS|ENSG00000107863|bound_else_gene|NA|bound_elsewhere_windowed (ssRNA)
RNA: GGGAGUUCUACAGUCCGACGAUCAAGGAAGAGUCGGAAAGGAAACUUCUCAGUAAAGAUGAUACCAGUCCCCCAAAAGACAAAGGCACAUGGAGAAAAGGCAUUCCAAGUAUCAUGAGAAAGACAUUUGAGAAAAAGCCAACUCAACAGAGGAUUGAGCAUCA
B10: ENSG00000124766:be:win_1501|3pUTR|ENSG00000124766|bound_else_gene|NA|bound_elsewhere_windowed (ssRNA)
RNA: GGGAGUUCUACAGUCCGACGAUCGACAGACGAAGAGUUUAAAGAGAAAAGGGAAAAAAGAAAGAAAAAGUAAGCAGGGCUGGCUUCGCCCGCGUUCUCGUCGUCGGAUCAAGGAGCGCGGCGGCGUUUUGGACCCGCGCUCCCCAACAGAGGAUUGAGCAUCA
B11: chr20:59938049:59938150:-|3pUTR|ENSG00000132825|unk|FALSE|unique (ssRNA)
RNA: GGGAGUUCUACAGUCCGACGAUCAAGUUUGAAACUAAGCAUUUUAAGAAGUCUUGCCUCAGUUAUUUCAGUUUUCAGGUGACUAGAGAAUUUCAGGCAACAGUGCCCUUUGCAAUUACCUUUUUGAUGAUUAAGGUGACUAUUCAACAGAGGAUUGAGCAUCA
B12: chr17:81509976:81510077:-|3pUTR|ENSG00000184009|msi1|total|mutant (ssRNA)
RNA: GGGAGUUCUACAGUCCGACGAUCUCUCGAUUCUUUGAAGAGAUGACAACAAAUUUUGGUUUUCUACUGUUAUGUGAGAACAUCCGGCCCCAGCAACACGUCAUUGUGUAAGGAAAAAUAAAAGUGCUGCCGUAACCAAUGAAUCAACAGAGGAUUGAGCAUCA
B13: chrX:30854639:30854752:-|CDS|ENSG00000157625|unk|FALSE|bound_elsewhere (ssRNA)
RNA: GGGAGUUCUACAGUCCGACGAUCUUCAGCUCUCCACAGCAUCAAGUGCAACCUUCCCAGUUGGGCCACAUCUUUAUGCCACCUAGUCCUUCAACUACUCCACCCCAUCCAUAUCAACAAGGACCUCCUAGCUAUCAGAAACAGCAACAGAGGAUUGAGCAUCA
B14: chr12:6965580:6965681:-|3pUTR|ENSG00000215021|unk|total|mutant (ssRNA)
RNA: GGGAGUUCUACAGUCCGACGAUCGUCAUUAUCUAUCUUUUUUUUCCUACAGUGACAGCCUCAUCAAGGGUAAGAAAUGAGCCCCGUCACCAAGAACUCCACCCCCAGAGGAAGUGGAUCUGCUUCUCCAGUUUUUGAGGAGCCCAACAGAGGAUUGAGCAUCA
B15: chr7:74121655:74121756:+|3pUTR|ENSG00000106683|msi1|FALSE|unique (ssRNA)
RNA: GGGAGUUCUACAGUCCGACGAUCGCCCCUUUCCACACGCCGCUGCCCCAGCAACCCUGUUCACGCUCCACCUGUCUGGUCCAUAGCUCCCUGGAGGCUGGGCCAGGAGGCAGCCUCCGAACCAUGCCCCAUAUAACGCUUGGGCAACAGAGGAUUGAGCAUCA
B16: ENSG00000198589:be:win_3701|CDS|ENSG00000198589|bound_else_gene|NA|bound_elsewhere_windowed (ssRNA)
RNA: GGGAGUUCUACAGUCCGACGAUCAGGCUUCUUCUGAGCAAAAGAUUGCGAAGUUGGAUGUUUCCAAUGUUGCUACAGAUACUGAGAGGCUGGAGUUGAAGGCCAGUCCCAACGUGGAAGCACCUCAACCUCAUCGACAUGUGCCAACAGAGGAUUGAGCAUCA
B17: chr4:25747873:25747886:-|3pUTR|ENSG00000091490|msi1_unk|FALSE|overlapping (ssRNA)
RNA: GGGAGUUCUACAGUCCGACGAUCUAGCAGUUAUAAGGCACCUUGAAAUAAAUUGUUUGUGCCUGGAAAUGCAGGGAGGGCAAUAGCUUUGUAAAUUGGUUUACAUUUUUCUCCUUGAAUUUUUCUAGGGUCCUAGUGCUUCCGCAACAGAGGAUUGAGCAUCA
B18: chr6:36855602:36855703:-|3pUTR|ENSG00000137168|msi1|total|mutant (ssRNA)
RNA: GGGAGUUCUACAGUCCGACGAUCGUCAUGAAGCUCCGGAGGCCUGGCAUCUUGGGUGAGUCCGAGAUGGAAGUACAUUUUAACCGGAUGCUUCUUUUCUCUUCCCCCAGUGCCCCGGUUGCCAGAGCAUUUGCACAAAUGCCCCAACAGAGGAUUGAGCAUCA
B19: ENSG00000198589:be:win_1901|CDS|ENSG00000198589|bound_else_gene|NA|bound_elsewhere_windowed (ssRNA)
RNA: GGGAGUUCUACAGUCCGACGAUCGUGGUAUCACCCCAAAAGGAUUAGAUGGACCGCGACCUAAUCAAAAAGAAAUGCUUUCUCUACGAGCAUUCUUGUUGAUGUUCAUUAAGCAAUUAGUGAUGAAGGAUUCUGGAGUAAAGGCAACAGAGGAUUGAGCAUCA
B20: chr9:34664162:34665309:-|three_prime_utr|ENSG00000187186|control|control|control (ssRNA)
RNA: GGGAGUUCUACAGUCCGACGAUCGGACCCGCCCCGGGCAUGGACGGGACUCAGUCUCUGAGGACCCAUCGGGGGGAAUCCGGUAGCUCCCGCCCCGCCUCAUGCCAGUGUCGGGUCGCCCCACAGCUCGGCGCACCCCGGGGACAACAGAGGAUUGAGCAUCA
B21: ENSG00000198589:be:win_9251|3pUTR|ENSG00000198589|bound_else_gene|NA|bound_elsewhere_windowed (ssRNA)
RNA: GGGAGUUCUACAGUCCGACGAUCGGAAAUGCUCUUGAGCUCACAACAUUUGUUUUUCUUUUAAAGUAAAUGCAAGUACCAAAGCUCACUACUGCGGUUUGCCUGUGCCUGGACAAUGAGGCGGAGCCACUGUUGUUUUGUUGGCAACAGAGGAUUGAGCAUCA
B22: chr15:34752480:34753372:-|CDS|ENSG00000159248|control|control|control (ssRNA)
RNA: GGGAGUUCUACAGUCCGACGAUCCCCCUGCAUCAAGGAGGUGGAAUGUUAUGUGUCCCGGCCAACUGAGAAGACUGUCUUUCUAGUGUUCAUGUUUGCUGUAAGUGGCAUCUGUGUUGUGCUCAACCUGGCUGAACUCAACCACAACAGAGGAUUGAGCAUCA

Each binder was assayed against T1, UNK ZnF1-6 (called full-length) (assay: nsRBNS (natural sequence RNA bind-n-seq); RBNS binding buffer (assumed for nsRBNS): 25 mM Tris pH 7.5, 150 mM KCl, 3 mM MgCl2, 0.01% Triton X-100, 500 ug/ml BSA, 20 U/ml SUPERase-In, 4 C; UNK is unkempt and MSI1 is Musashi-1; names of the RNAs are library labels; protein concentration not given here; high values mean tight binding).

Row | Binder | binding signal [enrichment R]
1 | B1 | 0.653
2 | B2 | 0.818
3 | B3 | 1.26
4 | B4 | 0.258
5 | B5 | 0.624
6 | B6 | 0.961
7 | B7 | 0.465
8 | B8 | 0.571
9 | B9 | 0.363
10 | B10 | 0.93
11 | B11 | 0.42
12 | B12 | 0.274
13 | B13 | 1.55
14 | B14 | 1.61
15 | B15 | 1.2
16 | B16 | 0.462
17 | B17 | 1.81
18 | B18 | 0.434
19 | B19 | 0.55
20 | B20 | 0.575
21 | B21 | 0.637
22 | B22 | 0.717

From PMC12136788
